Results: paper PMC10668032
The list shows a part of the results. At the low end of the ranking, values are background and their order means little.

What follows are sequences tested against SIX1 homeodomain (reference allele) (UniProt Q15475) (assay: universal protein binding microarray). Conditions: Universal all-10-mer PBM (8x60K, AMADID 030236), 300 nM GST-tagged protein, Alexa Fluor 488 anti-GST; buffer, salt, pH and temperature not stated; high values mean tight binding; most listed sequences are background and not binding sites; double strand, one strand shown.

Sequence	binding signal [E-score]
AGTCTCCC	-0.146
CACAACAA	-0.119
AAAAGAGT	-0.196
GCCCCTAA	-0.12
GGAGAGTA	0.0867
ATGCACTC	-0.0805
CTTGCTGA	-0.0978
AATCTGCC	0.0516
ACGTAAAC	-0.207
GCTTCCAC	-0.297
CGGCATAG	0.0273
CAAGCGAC	-0.251
CGAATCCA	0.165
CAGCAGGA	0.0321
AGCATGTC	-0.236
AAGCTCCT	-0.193
GCCACGCC	-0.27
AGCACTTA	-0.212
ATATACCG	0.393
AGCCGCCT	0.0811
GTGGCTTA	-0.217
AGTTCTGC	-0.268
AGGCACCT	-0.157
ATCCTAGC	0.165
AACTACCA	-0.186

Sequence	binding signal [E-score]
CAGAAGGC	-0.151
ATCCGATG	0.253
CACAGGCG	0.0281
CCAGGCTA	0.0814
CGTGCCGC	-0.141
TCGTAACA	-0.102
CGGACATC	-0.177
CGGCGTAG	-0.107
AACCACTT	-0.0743
AGCACAGG	-0.101
TGCCGGAA	-0.131
CTTGGAGC	-0.0107
TATCGTCA	0.364
CGTCCACC	-0.243
TCCATCCA	0.0976
GACTGCTC	-0.357
ATGGGTCC	-0.0045
AGCTTTGC	-0.116
CTGCTTCA	-0.265
AAGAGCGA	-0.159
AGCATACA	-0.0273
AGGTTTCA	0.08
AGTTGGTA	0.155
AAGGGTGC	-0.162
GTTCGACA	-0.0843

Sequence	binding signal [E-score]
CAGGGTGC	-0.117
ATACTTTA	0.261
CGGCGGTA	0.12
CAGTTTCA	-0.183
CTGCTCTC	-0.132
GCATTGCC	-0.147
ACCCAAGT	-0.0168
CCATTAAG	-0.0194
AGGCCCAT	-0.27
CCATTAAA	-0.119
GGCGTCTA	-0.0387
CGAGTGCC	-0.255
ACTGCGGG	0.0231
TTCAGGAA	-0.339
CCAAGTCA	-0.127
AGATATAG	0.187
AGCTGAGA	-0.0456
ACAACCGC	0.0366
GAGCGATC	0.279
CAATGTGA	-0.103
CCTGTTGC	-0.0543
AGGGGGAC	0.0297
ATTGGGAG	-0.0634
CGGGCGTA	0.0313
GGTACTAA	0.00186

Sequence	binding signal [E-score]
GGGGTCAA	0.151
CGGATGGA	0.121
AAAATGTG	-0.158
CGTGACAC	0.247
TGCGGTAA	-0.176
GCATACGA	0.157
CCGCTACG	-0.171
AAAGTACC	-0.176
CCACAAAA	0.0855
CTACTTCC	-0.0941
GGCCGACA	-0.173
GATTGGGC	-0.108
GGCATGAC	-0.161
CTCGCAAA	-0.193
GGCAGGCC	-0.196
ATGGGCCC	-0.213
GATCTATA	0.298
ACTAGATG	0.12
AGGAAGCG	-0.198
GACGCCCA	-0.192
AGTAATGG	-0.0338
CAAGCGAA	-0.2
ATAGTCAG	0.037
ACTAGTCA	-0.227
TATAGACA	0.232

Sequence	binding signal [E-score]
ACTACGAA	-0.195
CATGCTTA	0.0397
CCGGATCC	0.424
CCTAGGTA	0.0984
TCAATGAA	0.00752
AAAGTCCC	-0.133
ATAAATCA	0.0906
ACCATACA	0.18
ACCGGTCC	-0.206
ACGATGCC	-0.0824
ATACCTAT	0.398
AGGTGACA	0.137
TGACGACA	-0.0986
CCTGCGTA	-0.0253
ATCCCCCC	0.423
GGCTTCCC	0.0565
CACAGTTA	-0.0533
ATATTGCG	0.234
CGTAGTCA	-0.0834
CACGGCCG	-0.00311
AAAATTCA	-0.283
GGCCGTAC	0.0548
ACATCACA	0.0126
AGGCCAGA	-0.0852
ATTGACAC	0.315

Sequence	binding signal [E-score]
CGGAGCAC	-0.0464
AATTTATG	-0.19
ACCATCCA	0.00929
ACCGCATC	0.186
CAGCTGAG	0.0188
AGTAGAGA	-0.000225
TGGGCAAA	-0.143
CGTTTAGC	0.0552
CCACCCAC	0.0493
GATAACAC	0.082
CTTCGTGA	-0.00241
TACCAAAA	0.0673
AAGTCTTC	-0.247
AGATGACG	0.0859
GGCAATAC	0.181
TCTGCACA	-0.0704
AATGGCCA	-0.281
CACTGTTC	-0.31
CACATCGC	-0.081
ATGGGACA	0.0554
GCGCCAAC	-0.273
AATCCATA	0.214
CATTACCC	-0.117
ATATTTGG	0.0981
ACCCCCGC	0.135

Sequence	binding signal [E-score]
CCTACCTC	-0.108
GAAGGAGA	0.121
ATCGAGAC	0.217
GAGGCGCC	-0.127
CTAGAAAG	-0.132
AGACGCGA	0.0346
CGGTTTGC	-0.183
TCCGCTAA	0.0211
AAACTTGA	-0.0777
ACCTCCTC	-0.08
CCCGCTAC	0.00854
ACAAATGA	-0.204
CACCGCGC	0.106
GACGTGTA	0.107
ATTGAGAG	0.0988
AATGCTGC	-0.292
AATAACAG	-0.17
ATGTCCTG	-0.199
ATAAACGC	-0.0335
GCTTATCC	0.304
GCGTATGA	0.081
GGAGGCAA	0.045
